In PMC12040169 (PLOS Biology, 2025):
Some of the results follow.

What follows are compounds tested on T1, C. trachomatis L2/434/Bu expressing GFP (CTL2-GFP). Details: total inclusion area; 28.5 h, 10 µM; inhibitor.
T1 construct: L2/434/Bu GFP intracellular growth in HeLa cells
Parameters: species or system HeLa; C. trachomatis total inclusion area by high-content imaging, normalised to DMSO
In short: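 After bulk GFP and resorufin fluorescence reads, cells were fixed, stained with Hoechst and imaged by high-content microscopy. Inclusion area and number (GFP) stood in for chlamydial growth, nuclei count (Hoechst) for host cell viability. MICs were derived as for the bulk readout.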

Row | SMILES | % of control remaining
1 | O=C(NCCCN1CCOCC1)c1cc2cc([N+](=O)[O-])ccc2oc1=O [CBK263441] | 104.364
2 | CS(=O)(=O)N1CC2(CCNCC2)c2ccccc21 [CBK005171] | 103.209
3 | Cc1ccc(S(N)(=O)=O)cc1NC(=O)c1ccc[nH]1 [CBK050200] | 80.3857
4 | CCCC/C=C/c1nccnc1NCCc1ccncc1 [CBK037370] | 127.878
5 | Cc1ccc(S(=O)(=O)N2CCC(C(=O)NC(c3ccccc3C)c3ncccc3C)CC2)cc1 (stereo not shown) [CBK060249] | 105.698
6 | CNC(=S)N/N=C/c1c(C)cccc1Cl [CBK021253] | 85.5861
7 | O=C(O)c1ccc(/C=N/c2ccc(S(=O)(=O)c3ccc(/N=C/c4ccc(C(=O)O)cc4)cc3)cc2)cc1 [CBK262038] | 99.8748
8 | Cc1ccc(CN(CCCn2ccnc2)Cc2ccsc2)o1 [CBK283253] | 68.4037
9 | CCN(CC)C(=O)CN1CCC(c2ccc(OC)cc2)CC1 [CBK283559] | 74.0583
10 | Cc1cc(N2CCOCC2)c2c(N)c(Br)cc(C)c2n1 [CBK066880] | 75.9556
11 | Cc1cn(C2CC(O)C(C3N(c4ccccc4)CCN3c3ccccc3)O2)c(=O)[nH]c1=O (stereo not shown) [CBK201232] | 109.108
12 | Cc1cccnc1NC(=O)c1c(O)c2ccccc2n(C)c1=O [CBK261431] | 89.6284
13 | COC(=O)c1ccc(NC(=O)CN2CCC(C(N)=O)(N3CCCCC3)CC2)cc1 [CBK268275] | 95.4466
14 | Cc1nc(N)nc(NCC(O)CN(C)C)c1Cl (stereo not shown) [CBK306963] | 83.3885
15 | COC(=O)c1cc(NS(=O)(=O)c2cc(Cl)ccc2Cl)cc(C(=O)OC)c1 [CBK077853] | 92.6021
16 | CCN1C(=O)c2[nH]nc(-c3ccccc3O)c2C1c1cccc(O)c1 (stereo not shown) [CBK288159] | 91.1942
17 | Cc1cc(C)n(CCCC(=O)N2CC3(CCNCC3)CC2C(=O)O)n1 (stereo not shown) [CBK307174] | 86.4265
18 | COc1ccc(CCC(C)N2CCN(c3ccc(F)cc3)CC2)cc1 (stereo not shown) [CBK261922] | 66.5938
19 | CCOC(=O)Cc1csc(NS(=O)(=O)c2ccc(Br)cc2C)n1 [CBK200027] | 82.5389
20 | CC(=O)Nc1ccc(Nc2cc(-c3ccsc3)ncn2)cc1 [CBK090717] | 58.0387

Row | SMILES | % of control remaining
21 | CCNc1cccnc1N1CCN(C(=O)CCC(=O)c2ccc(NS(C)(=O)=O)cc2)CC1 [CBK010701] | 102.557
22 | O=C1N[C@@H]2CCN(CC(=O)N3CCCC3)C[C@@H]2CCCCCOc2ccccc21 [CBK292141] | 85.6639
23 | c1ccc(Cn2cncc2-c2cncn2CCCN2CCCCC2)cc1 [CBK281490] | 71.9202
24 | COc1ccc(C(=O)O)cc1S(=O)(=O)Nc1cccc(C=Cc2ccccn2)c1 [CBK297763] | 53.2481
25 | COc1cc(/C=N/NC(=O)c2n[nH]c3c2CCC3)ccc1O [CBK262881] | 108.59
26 | Cc1nc2c(C(=O)NCCOCCO)cnn2c(C)c1Cc1cccc(OC(F)(F)F)c1 [CBK167454] | 47.3188
27 | COc1cc(C)c(Nc2cc(-c3cccc(N(C)C)c3)ncn2)cc1OC [CBK090780] | 7.1281
28 | O=C(OCc1cc2ccccc2o1)N1CCOCC1 [CBK200162] | 90.5844
29 | Cc1ccc(C(=O)Nc2c(C(=O)N3CCN(Cc4ccccc4)CC3)cnn2-c2ccccc2)cc1 [CBK263053] | 96.1534
30 | CN1CCCN(c2cncc(-c3ccc(F)cc3F)n2)CC1 [CBK065858] | 79.9761
31 | COC(=O)C(CCSC)NC(=O)c1ccc(C(F)(F)F)cc1 (stereo not shown) [CBK057452] | 85.2423
32 | O=c1oc(-c2ccncc2)nn1Cc1ccccc1F [CBK283692] | 75.7543
33 | CCCCCCSc1ccc(C(=O)CCCN2CCOCC2)cc1 [CBK010344] | 100.092
34 | O=C(Cc1ccc(Cl)cc1)N1CCc2c([nH]c3ccccc23)C12CCN(Cc1ccc(F)cc1)C2 (stereo not shown) [CBK059453] | 56.0062
35 | CCn1c(COc2cccc3cccnc23)nnc1SCC(=O)c1ccc(F)cc1 [CBK265656] | 99.8993
36 | CCNC(=O)Nc1ccccc1C(=O)NC1CCCCC1 [CBK175266] | 117.935
37 | Cc1ccc(S(=O)(=O)/N=C(\NC(C)C(=O)O)c2ccccc2)cc1 (stereo not shown) [CBK263099] | 109.057
38 | Cc1c[n+]2ccsc2n1Cc1ccccc1C#N [CBK260951B] | 78.4965
39 | COC(=O)c1c(NC(=O)CCCC(=O)O)sc(C)c1C [CBK265382] | 98.1106
40 | CCN(CC)CCN1C(=O)C(O)=C(C(=O)c2ccc(C)o2)C1c1ccccn1 (stereo not shown) [CBK266584] | 85.3613
